± gives the standard deviation of the averaged measurements. The list shows a part of the results.

The test deals with PfAP2-G AP2 domain (GST-tagged). Briefly: gcPBM binding intensity (ln(normalized median fluorescence intensity)); higher = stronger DNA binding. The method, boiled down: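 After 1 h on an Agilent 4 × 180k array of primer-extended double-stranded 36-bp intergenic genomic probes and negative controls, bound GST-tagged P. falciparum DNA-binding domains were detected with Alexa488 anti-GST antibody and scanned at 488 nm. The domains had been expressed in E. coli, and binding took place in 1× PBS with 1% milk, 0.2 mg/ml BSA, 0.5% salmon testes DNA and 0.03% Triton X-100. Binding intensity is the highest Masliner-normalised natural-log median intensity across replicate spots of either probe orientation.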
As to “ATATATATATTTATATTTATATGTAAATATCAACGT [TGCATGCA_negctrl_site32]”, the “gcPBM binding intensity (ln)” value was 9.96 ± 0.4.
For “TATTTTGTAATAATTACACACGGAATTATAACAGAA [CACACA_site2355]”, the “gcPBM binding intensity (ln)” value turned out to be 10.1 ± 0.27.
With “TCTTAATTTGTTATATGTACATAATATAATTGTATA [XGTACX_site5184]” the figure was 11.3 ± 0.77; with “TTAAACTTGTTTTGGATGCACTATATAATTCATTTT [GTGCAC_site9549]”, 9.815 ± 0.021.
As for “ATTAAAATAATTTAATTTCTTAGACACAATTTGTAA [GTGCAC_negctrl_site331]”, the “gcPBM binding intensity (ln)” value was determined as 9.84 ± 0.18.
Regarding “GTGTAAAGGTATTATTGTATTATTCAAAATAAAAAA [CACACA_negctrl_site637]”, the “gcPBM binding intensity (ln)” value stood at 10.3 ± 0.45.
Take “TCCTACATATTATAGTGTACATTTTCATGTTCATAT [XGTACX_site4308]”: the “gcPBM binding intensity (ln)” value was 11.2 ± 0.6.
The same measure for “AAGTATTATATATTTTGTACATATATAAAACCACAA [XGTACX_site5508]”: 10.9 ± 0.57.
The same measure for “ATTGTGTTAATGAAATGTACATTTTCTCTACGTTAA [XGTACX_site1322]”: 10.8 ± 0.47; for “AATATTATGTATAACCGTACATTATATATATAATAA [XGTACX_site1594]”: 10.5 ± 0.35; for “TATAAAAATATTTCTACACACATTAATATATATATA [CACACA_site1150]”: 9.93 ± 0.27.
The same measure for “AATACTATTATTATTGCACACTTATTATCCCTCGGA [CACACA_site4262]”: 10 ± 0.18.
Regarding TATCCATTTCTTTATGTGCACATTAAATATATTTGT, the “gcPBM binding intensity (ln)” value amounted to 10.6 ± 0.2.
Consider “TATTTTTTCTTTCATTGTACTTTTTTTTTGTTTTGT [XGTACX_site4081]”, for which the “gcPBM binding intensity (ln)” value was 11.4 ± 0.85.
With “AATGAGAAATATAATTGTACATATATTTATTTTCAT [XGTACX_site3669]”, the “gcPBM binding intensity (ln)” value was 11 ± 0.45.
With “ATTTGTAAAAAATTCATACACACGTCTTATTTTTAA [CACACA_site1390]” the figure was 9.96 ± 0.014; with “AATATATAGAGAGATATGCACACTGTATGAATGCAC [CACACA_site2677]”, 9.84; with “TATATTAATAATAAGTGTACATATATATATATTTTT [XGTACX_site288]”, 11.3 ± 0.81.
The same measure for “AAACAAAAAATTTAAAGTACAAAAATTATGATTGTT [XGTACX_site465]”: 10.9 ± 0.57; for “AAAAAATTAATATTGACACACATTTTTAAGAATAAT [CACACA_site239]”: 10.1 ± 0.16.
The same measure for “TTTTTTTTTTTTTTTTTTTTTTTATCTATTATTTAT [XGTACX_negctrl_site496]”: 9.59 ± 0.57; for “CAAAAGGATAGGCACACACACACACCCATATATATA [CACACA_site2199]”: 10.2 ± 0.2; for “AATATGTCTATATTTTTTATATGGAAATATTATAAA [GTGCAC_negctrl_site700]”: 9.93 ± 0.13.
With “TAAAAGGAAAAAAAAGCACACACAATATTACTTGAA [CACACA_site8831]”, the “gcPBM binding intensity (ln)” value was 10 ± 0.14.
For the sequence “TATCAAAATTAGTATACACACAAAATTATTCAAATA [CACACA_site2232]”, the “gcPBM binding intensity (ln)” value was 10 ± 0.23.
The same measure for “TATACATATAAATTGTGTACACATATATATATATTT [XGTACX_site7875]”: 11.6 ± 0.92; for “CTTTTTACTTAATACACACACACACTAGAAAAAAAA [CACACA_site4680]”: 10.4 ± 0.42.
With “AATATATAAATTAATACATGCACATATAGAAAGGGA [TGCATGCA_site472]” the figure was 10.2 ± 0.28; with “AATATAGTCACACATACACACATATAGATTTATATA [CACACA_site7223]”, 10.1 ± 0.2; with “TTTTGTTGCTCTTTTTTTTTTTTTTTTAACTGTATG [CACACA_negctrl_site1072]”, 9.945 ± 0.064.
Consider “CTTTTCTTTTTTTTTTGTACATAAAATTATTCCTTA [XGTACX_site3924]”, for which the “gcPBM binding intensity (ln)” value was 11.1 ± 0.73.
The same measure for “AACCAATATGTGTATACACACATAAATATAAATATA [CACACA_site7729]”: 10.1 ± 0.25; for “AAAAAAAAAAAAAGGTGTACATAAGTAAATTCATAT [XGTACX_site4206]”: 11.5 ± 0.8.
For “TCATACTGTATATTTTGTACTTATATATATATTATA [XGTACX_site6136]”, the “gcPBM binding intensity (ln)” value turned out to be 11.2 ± 0.48.
The same measure for “CATTATGTTGTAAATGCACACATACATATACACAGT [CACACA_site8990]”: 10.3 ± 0.19; for “ACAGAATACATATACACACATACAAAAAAGTGCATA [CACACA_site987]”: 10.3 ± 0.16.
With “TATATAAACACGTACACACACATATAGGTATTTATA [CACACA_site7615]” the figure was 11.6 ± 1.
Take “TTATTTTGTTTTAAAAGTACACACTTTTAATTAGAT [XGTACX_site2271]”: the “gcPBM binding intensity (ln)” value was 11.6 ± 1.1.
For “ATAATAAGCAAACACACACACACAAAAAAAAAAAAA [CACACA_site720]”, the “gcPBM binding intensity (ln)” value is 10 ± 0.63.
With “TACAAAAGCGATACGGCACACATTTCCTGTTTAAAT [CACACA_site2746]” the figure was 10.21 ± 0.092; with “AAAAGATTGCTCCGCATGCACCTCCAAAAGTTCCTT [GTGCAC_site9993]”, 9.925 ± 0.035.
With “TTTGCTTCCAAAAGTCGTACAAAAAATATTAAATAT [XGTACX_site4171]” the figure was 11.6 ± 0.9.
With “TAAATATATTAATACACACACGATATGTACAAAAAA [CACACA_site540]” the figure was 11.3 ± 0.73; with “TGCATATACGCAAGCACACATATATATATATATATA [CACACA_site1069]”, 10.1 ± 0.26; with “TTTTGATTTCCTATTGCACACTTTTTTTAAGTTTAT [CACACA_site1056]”, 10.185 ± 0.007.
For the sequence “TATATATATATATAATGTACATATAATATATTTATT [XGTACX_site7892]”, the “gcPBM binding intensity (ln)” value amounted to 11.2 ± 0.73.
“GCTTAATGTCATATATCACACATGAAAATATATATA [CACACA_site5089]”: the “gcPBM binding intensity (ln)” value is 10.1 ± 0.12.
“AACAAAACCTTATATGTACACACATATACATCACAC [CACACA_site9037]”: the “gcPBM binding intensity (ln)” value was found to be 11.3 ± 0.61.
With “TATATATATATATATTGTACTGAACGTTTTTTTTTG [XGTACX_site8060]” the figure was 10.8 ± 0.67; with “ATTAATTTTAATAAAGGTACACGTAGTTTTTTATTA [XGTACX_site7868]”, 11 ± 0.69; with “TTAAAATTAAAAATGCGTACACATATACATAAAAAA [XGTACX_site1915]”, 11.7 ± 1.
The same measure for “ATATACACTTAATTTTTTATAAAAAAAAATTTATAT [CACACA_negctrl_site498]”: 10 ± 0.24; for “GTAATAATTTTTTGTAGTACACAAAAATTCATATTT [XGTACX_site2699]”: 11.7 ± 1.1; for “ATGTGATATAAGTACACACACATATGTATTTATAAC [CACACA_site6942]”: 11.5 ± 0.8.
With “ATATACATAATCTTCTTGCACTTTTTTTTTTTTTTT [GTGCAC_site9410]” the figure was 10.3 ± 0.22.
For the sequence “TATATTTTGTTCTTTCCACACACAAATACATATATT [CACACA_site9348]”, the “gcPBM binding intensity (ln)” value worked out at 10.2 ± 0.11.
Take “AATTTATAATTATAGAGTACATATTTTTAATATATA [XGTACX_site2566]”: the “gcPBM binding intensity (ln)” value amounted to 11.1 ± 0.83.
The same measure for “AGAAAAACTTATATGATACACACGATAAACAAAATA [CACACA_site1038]”: 10.7 ± 0.71.
With “TACAAACACCCATATACACACAAAAAAAAAATAAAA [CACACA_site5421]” the figure was 10.1 ± 0.47; with “TATACATAAAACAGTTCACACATTGTATGAATATAT [CACACA_site4751]”, 9.855 ± 0.035.
The same measure for “TATATAATATATATATGTACATATATATATGTTTTT [XGTACX_site3347]”: 11.1 ± 0.61.
Regarding “GGACAACAAACAAACACACACAAAAAAAAAATAAAA [CACACA_site3791]”, the “gcPBM binding intensity (ln)” value was determined as 10.3 ± 0.19.
The same measure for “TTGTTTCTTTTTTTTTGTACATATATATTGTATATT [XGTACX_site7602]”: 11 ± 0.61; for “AATTTTTCAAATTAATGTACTTGTTATAAATTGTAA [XGTACX_site5428]”: 11.1 ± 0.89.
The same measure for “TACGTATTTTAATATTTACACACTTATTTTTTATAT [CACACA_site7924]”: 10.2 ± 0.13; for “GGCAATACATAATAATGTACATAATTATATAATATT [XGTACX_site3739]”: 11 ± 0.54; for “TATATCTGTTTATATTGTACACATATATATATATAT [XGTACX_site714]”: 11.4 ± 0.93.
Consider “AAATATATTATATCATATATTAAAGCATATATTAAA [CACACA_negctrl_site1624]”, for which the “gcPBM binding intensity (ln)” value is 9.46 ± 0.23.
The same measure for “GATAATTTTTTTCTCACACACAAATATTTTAATCAT [CACACA_site3666]”: 10.02 ± 0.092; for “TAATAATAGTACTGACATCGAAATATTATTAAAAAT [CACACA_negctrl_site255]”: 10.8 ± 0.71; for “ATATTTTGGGGACTTTTTAAAAAAGAAGTATTAAAA [CACACA_negctrl_site1228]”: 10.9 ± 0.61.
The same measure for “TGGCAAAATAGGCACACACACATATACCTATAGATT [CACACA_site7168]”: 10.2 ± 0.27; for “GTAAATATATAAACATGTACATATATAAATATATAA [XGTACX_site7262]”: 11.2 ± 0.84.
The same measure for “TATAAGAATAAAAAGGGTACATAAAATAATAATATA [XGTACX_site2355]”: 11.3 ± 0.73; for “GTTTACATAGATAACTGTACGCAATGATATTAGACA [XGTACX_site1320]”: 11.5 ± 1; for “CAAAAAAAATAAAACACACACACAAAAAAATAAAAA [CACACA_site466]”: 10 ± 0.042.
For the sequence “AAAAAAAAAAAACACACACACACACCGACACATACA [CACACA_site5576]”, the “gcPBM binding intensity (ln)” value was determined as 10.3 ± 0.36.
For AGGTAAAAATGGTAAGTGCATTAATGATAAAAAATG, the “gcPBM binding intensity (ln)” value worked out at 10.3 ± 0.19.
On to “GAATATTCACATACTTGTACATATATATATATATAT [XGTACX_site7302]”, for which the “gcPBM binding intensity (ln)” value amounted to 11.1 ± 0.65.
With “ATATTTCTGTGTGGATGTACATTATTAGCAGGCTTT [XGTACX_site6496]” the figure was 11 ± 0.63; with “AAAATATATACACAAACATGCATATAATAAATAAAT [TGCATGCA_site711]”, 9.895 ± 0.064.
For the sequence “ATAATTCAAAAAAACACACAAATTACAAAATAAACT [CACACA_site6264]”, the “gcPBM binding intensity (ln)” value turned out to be 9.965 ± 0.007.
On to “CAAAATAATAATAAAAGTACTAACATATTTATGAAA [XGTACX_site6078]”, for which the “gcPBM binding intensity (ln)” value amounted to 11.1 ± 0.68.
The same measure for “ATATAAACAGAAAATAGTACTTTATATTGAAAAAAA [XGTACX_site7183]”: 10.9 ± 0.59; for “GATGATACAAAGTAATGTACATAAATACACATATTG [XGTACX_site3177]”: 10.9 ± 0.47; for “AAATTTGATATAAAAAGTACAAAATGTTCCTCAGCT [XGTACX_site809]”: 11.1 ± 0.52.
The same measure for “GTTTACATTAAAAATTGTACTCTGTATGAATAATAT [XGTACX_site80]”: 11 ± 0.78; for “CTTAAAAAAACCTTAACACACATAAACTCTAATTTA [CACACA_site7430]”: 9.84 ± 0.11; for “ATTTCATTTTATAAGTGTACAATAAAAAAAAAAAAA [XGTACX_site8677]”: 11.3 ± 1.

Values taken from the supplement of paper PMC11417369.
